# Publication PMC4336329 (PLoS ONE, 2015)
# The campaign covered roughly 310,000 compounds. About 14,000 (4.5%) showed an effect of 50% or more. Effects have a minus sign here. This is one part of the list.
# Target: human ether-à-go-go-related gene (hERG) potassium channel (human, UniProt Q12809)
# Assay: primary screen, population patch clamp on CHO cells stably expressing hERG
# 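Further: peak tail current of the secondary pulse compared with the same well before compound.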
# human ether-à-go-go-related gene (hERG) potassium channel, sequence (Q12809 whole entry, looked up): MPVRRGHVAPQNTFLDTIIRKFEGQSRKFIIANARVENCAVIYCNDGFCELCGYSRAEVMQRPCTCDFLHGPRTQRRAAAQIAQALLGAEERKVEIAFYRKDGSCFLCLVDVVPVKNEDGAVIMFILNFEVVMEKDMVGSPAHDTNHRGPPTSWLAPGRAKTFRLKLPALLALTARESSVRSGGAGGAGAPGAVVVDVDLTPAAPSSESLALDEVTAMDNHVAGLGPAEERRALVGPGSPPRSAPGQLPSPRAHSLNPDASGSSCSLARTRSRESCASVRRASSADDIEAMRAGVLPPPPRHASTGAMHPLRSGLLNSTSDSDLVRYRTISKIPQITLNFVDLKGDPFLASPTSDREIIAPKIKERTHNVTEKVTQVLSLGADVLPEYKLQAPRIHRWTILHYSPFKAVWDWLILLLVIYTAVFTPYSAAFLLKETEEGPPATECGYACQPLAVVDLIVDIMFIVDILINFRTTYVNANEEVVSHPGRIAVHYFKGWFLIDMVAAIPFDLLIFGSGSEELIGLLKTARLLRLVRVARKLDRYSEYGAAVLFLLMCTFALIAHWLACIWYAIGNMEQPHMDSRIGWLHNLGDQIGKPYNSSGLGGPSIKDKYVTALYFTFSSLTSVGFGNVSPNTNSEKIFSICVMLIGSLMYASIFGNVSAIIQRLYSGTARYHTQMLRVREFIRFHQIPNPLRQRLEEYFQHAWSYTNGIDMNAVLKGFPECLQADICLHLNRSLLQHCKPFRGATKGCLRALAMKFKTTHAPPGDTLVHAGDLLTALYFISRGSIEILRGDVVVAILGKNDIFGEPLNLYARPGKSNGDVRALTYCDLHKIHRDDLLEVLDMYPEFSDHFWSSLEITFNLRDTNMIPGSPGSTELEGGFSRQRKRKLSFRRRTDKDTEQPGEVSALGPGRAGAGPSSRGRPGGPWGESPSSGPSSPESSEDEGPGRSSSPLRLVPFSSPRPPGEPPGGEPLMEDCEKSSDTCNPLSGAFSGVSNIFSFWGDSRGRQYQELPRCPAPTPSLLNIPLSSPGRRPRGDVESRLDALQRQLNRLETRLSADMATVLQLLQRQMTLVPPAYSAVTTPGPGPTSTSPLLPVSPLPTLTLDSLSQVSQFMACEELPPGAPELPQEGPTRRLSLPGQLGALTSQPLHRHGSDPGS
row,SMILES,"hERG current change (%, negative = inhibition) at 10uM [%]"
1,CC(=O)N1CCN(c2ccc(NC(=O)c3cccc([N+](=O)[O-])c3)cc2)CC1,-3.59
2,COc1ccc(-c2coc3cc(OC)cc(OC)c3c2=O)cc1,6.69
3,CCOCCCNC(=S)N1C2CCC1CC(NC(=O)Nc1ccc(C(=O)OCC)cc1)C2 (stereo not drawn),13.7
4,CCSc1nnc(NC(=O)c2ccc3c(c2)OCO3)s1,-7.13
5,O=C(Cc1cccc(C(F)(F)F)c1)Nc1ccccc1,8.89
6,CCOC(=O)C1=C(C)OC(N)=C(C(=O)OCC)C1c1cccnc1 (stereo not drawn),-14.7
7,CCC(CC)NC(=O)c1ccccc1Oc1ccccc1,0.274
8,Fc1ccc(-c2nnc(-c3ccc(Cl)cc3)o2)cc1,15.4
9,Cc1nnc(SCC(=O)N2CCc3ccccc32)s1,0.225
10,CC(=O)NCC(=O)NC1CC(C)(C)Cc2c1cnn2-c1ccccc1 (stereo not drawn),12.4
11,CCc1ccccc1N1CSC2=C(C#N)C(c3cc(OC)c(OC)cc3OC)CC(=O)N2C1 (stereo not drawn),2.71
12,O=C(COc1ccc(Cl)cc1Cl)NN1C(=O)/C(=C\c2ccc(Cl)cc2)SC1=S,17.2
13,O=Cc1cccn1-c1cccnc1,3.86
14,CCN(CC)S(=O)(=O)c1ccc(N2CC(C(=O)NCCc3ccc(Cl)cc3)CC2=O)cc1 (stereo not drawn),-26.6
15,CCCCNC(=O)Cn1c2c(c(-c3ccccc3Cl)cc1=O)CCC2,-23.5
16,O=C(OCC(=O)N1CCCC1=O)c1cc(S(=O)(=O)N2CCOCC2)ccc1Cl,-22.9
17,CCOC(=O)[C@H]1[C@H]2COc3ccc(Br)cc3[C@@H]2N2C(=O)c3cc(F)c(F)cc3NC(=O)[C@@]12C,-3.74
18,CCN(CC)C(=O)c1ccc(COc2ccccc2Br)o1,-8.22
19,COc1ccc(-c2cc(C)no2)cc1S(=O)(=O)Nc1cccc(C)c1,10.2
20,CCCn1c(SCC(=O)N2CCN(CC)CC2)nc2c1c(=O)n(C)c(=O)n2C,12.9
21,O=S(=O)(NCC1(N2CCOCC2)CCCCC1)c1ccc(Cl)cc1C(F)(F)F,-0.581
22,Cc1cccn2c(=O)c3cc(C(=O)N4CCCCC4C)sc3nc12 (stereo not drawn),-0.789

row,SMILES,"hERG current change (%, negative = inhibition) at 10uM [%]"
1,O=C(CCc1ccccc1)Nc1cc(C(F)(F)F)ccc1Cl,1.66
2,COCCCNC(=O)c1c(NC(=O)c2ccccc2)n(Cc2ccccc2)c2nc3ccccc3nc12,-4
3,Cc1cc(-c2n[nH]c(=S)n2/N=C/c2cccs2)n[nH]1,5.42
4,O=C(O)C1C2C=CC(C2)C1C(=O)OCc1ccccc1 (stereo not drawn),7.83
5,CCOC(=O)CNC(=O)CSc1nnc(-c2cccc(OC)c2)n1CC,7.24
6,COc1ccc(OC)c(C(=O)COC(=O)CNC(=O)C2CCCCC2)c1,14.9
7,COc1ccc(-c2nnn(CC(=O)N(Cc3cccs3)C(C)C(=O)NC3CCCC3)n2)cc1OC (stereo not drawn),-37.7
8,COc1ccccc1C(=O)N1CCN(CCNC(=O)C(=O)Nc2ccc(Br)c(C)c2)CC1,-48.8
9,CC(C)N=C(Nc1cccnc1)c1ccccc1,21.9
10,CC(C)Cn1c(/C=C/c2ccccc2)nc2ccccc21,-42.2
11,Cc1c(N=c2scc(-c3ccccc3)n2CCO)c(=O)n(-c2ccccc2)n1C,5.72
12,COC(=O)c1c(N2C(=O)[C@H]3[C@@H](C2=O)[C@]2(C(=O)Nc4c(C)cc(C)cc42)N2CCC[C@@H]32)sc(C)c1C,9.78
13,Br.CCCCn1c(=N)n(CC(=O)c2ccc(OC)cc2)c2ccccc21,-73.6
14,CCCn1c(SCC(=O)N2CCCc3ccccc32)nc2c1c(=O)n(C)c(=O)n2C,-18
15,CC(C)N(CCn1c(SCC(=O)N2CC(=O)Nc3ccccc32)nc2ccccc2c1=O)C(C)C,-76.6
16,CCCNC(=O)NC(=O)CSc1ncc(C(F)(F)F)cc1Cl,12.6
17,COc1ccc(-n2c(=O)c3ccccc3c3ccccc3c2=O)cc1,-3.19
18,COc1ccc(S(=O)(=O)NCc2cc(-c3ccccc3Cl)no2)cc1,3.4
19,Cc1ccc(S(=O)(=O)/C=C2\NC(=O)CS2)cc1,3.46
20,CC(C)OC(=O)C(C)Nc1ccc(F)c(Cl)c1 (stereo not drawn),-1.65
21,COc1ccc(C(=O)N2CCN(c3ccc(NC(=O)Cc4ccccc4)cc3)CC2)cc1,-31.8
22,CCCc1nc(N2CCN(C)CC2)c2sc(=S)n(-c3ccccc3)c2n1,6.76

row,SMILES,"hERG current change (%, negative = inhibition) at 10uM [%]"
1,Cc1ccc(N2C(=O)N3[C@H](c4cccc(C)c4)[C@@H]4C(=O)N(Cc5ccccc5)C(=O)[C@@H]4[C@]3(C)C2=O)cc1,10.3
2,Cn1cc(C(=O)NP(=O)(N2CCOCC2)N2CCOCC2)c2ccccc21,29.7
3,CCc1nccn1CCC(=O)N1CCCC(N2CCN(c3ccccc3C)CC2)C1 (stereo not drawn),-10.3
4,O=C(N/N=C/c1ccc(-c2cccc(C(F)(F)F)c2)o1)c1ccccc1O,3.25
5,CC1(C)CC(=O)C/C(=N\NC(=O)CCc2ccc(S(=O)(=O)N3CCOCC3)cc2)C1,7.04
6,O=C(COc1ccccc1)Nc1ccc2c(c1)C(=O)N(CC1CCCO1)C2=O (stereo not drawn),6.03
7,CCOC(=O)N1CCN(C(=O)c2cc3cc(OC)c(OC)cc3[nH]2)CC1,5.96
8,CCc1ccc2[nH]c(C(=O)Nc3ccc4c(c3)OCO4)cc2c1,18.8
9,O=S1(=O)CCO[C@H]2Cc3ccccc3[C@H]2N1Cc1ccccc1F,-9.34
10,Nc1n[nH]c(-c2ccc([N+](=O)[O-])cc2[N+](=O)[O-])n1,15.4
11,CCOc1ccc(S(=O)(=O)Nc2ncn[nH]2)cc1,6.66
12,COc1ccc2c(Cl)c(C(=O)N/N=C/c3cccnc3)sc2c1,13
13,COc1ccc2nc(NC(=O)CN3C(=O)NC4(CCCCC4)C3=O)sc2c1,14.2
14,COC(=O)c1cccc(NC(=O)CSc2nnnn2C)c1,19.4
15,O=C(NC(=S)NNC(=O)c1cnccn1)c1ccc(F)cc1,12.6
16,C=C1CCN([C@@H](Cc2ccccc2)C(=O)NCc2ccc(Cl)c(Cl)c2)S(=O)(=O)c2ccccc21,10.8
17,CC(SCc1ccccc1)C(=O)Nc1ccccc1Br (stereo not drawn),-1.28
18,CC[C@@H]1Cc2cc(O)ccc2C2=C1c1ccc(O)cc1C[C@H]2CC,-14.3
19,CN1C(=O)N(CN2CCCCC2)C2C1N(C)C(=O)N2CN1CCCCC1 (stereo not drawn),-19.9
20,C=CCn1c(-c2cccs2)nc2nc3ccccc3nc21,-15.6
21,CCOP(=O)(C#CC(C)(C)C)C(C)(O)c1ccccc1 (stereo not drawn),14
22,O=C1C=C(c2ccnc3cc(Cl)ccc23)C[C@@H](c2ccc3c(c2)OCO3)C1,-26.3

row,SMILES,"hERG current change (%, negative = inhibition) at 10uM [%]"
1,CCc1ccc(C2C(C(=O)O)c3ccccc3C(=O)N2C)cc1 (stereo not drawn),-1.37
2,O=C(NC1(Cc2ccc(O)cc2)CCCCC1)c1ccccc1,-23.3
3,CC1(O)N(Cc2ccccc2)C(=O)OC12CCCCC2 (stereo not drawn),9.89
4,Cc1ccc(NC(=O)C2CCN(S(=O)(=O)c3ccc4c(c3)OCCO4)CC2)c(O)c1,-8.51
5,Cc1cc(C)n(CC(O)COc2ccccc2Br)n1 (stereo not drawn),7.02
6,COc1ccccc1N(CC(O)CN1CCCCC1)S(=O)(=O)c1ccc(C)cc1 (stereo not drawn),-29.7
7,O=C(NCc1ccncc1)c1ccc(Cl)c(S(=O)(=O)N2CCCCC2)c1,-22.4
8,Cc1cc(C)nc(NC(=O)Nc2ccc3c(c2)OCO3)c1,13.3
9,COc1ccccc1/C=N/n1c(N)c(S(=O)(=O)c2cccs2)c2nc3ccccc3nc21,11
10,CC(Sc1nc(O)c(-c2ccccc2)c(=O)[nH]1)C(=O)Nc1ccc(Cl)cc1 (stereo not drawn),26.9
11,Cc1cc(C)n(C2CC(=O)N(c3cc(Cl)cc(Cl)c3)C2=O)n1 (stereo not drawn),4.5
12,CN=C1SC(CC(=O)Nc2ccc(C(=O)O)cc2)C(=O)N1C (stereo not drawn),2.83
13,O=C(Cn1cnc2c(nc3n2CCCCC3)c1=O)Nc1cccc(C(F)(F)F)c1,-52.3
14,CCOC(=O)c1c(NC(=O)CC2Sc3ccc(C(F)(F)F)cc3NC2=O)sc(C)c1C (stereo not drawn),8.96
15,CC(C)c1nnc(NC(=O)CS(=O)(=O)Cc2ccccc2)s1,1.77
16,N#CCN1CCC2(O)CCCCC2C1c1ccc2c(c1)OCO2 (stereo not drawn),-27.9
17,CC(=O)Nc1ccc(S(=O)(=O)NCCSCc2c(Cl)cccc2Cl)cc1,8.43
18,O=C(CCN1C(=O)S/C(=C\c2ccc(Cl)cc2)C1=O)Nc1ccc(C(=O)O)cc1,14.9
19,CCCNC(=O)C1CCN(c2ccc(S(=O)(=O)N3CCOCC3)cc2Cl)CC1,6.36
20,O=C1CC(C(=O)Nc2ccccc2)C2(CCCC2)O1 (stereo not drawn),3.49
21,COc1ccc(OC)c(C2CC(c3ccc(NS(C)(=O)=O)cc3)=NN2C(=O)c2ccccc2)c1 (stereo not drawn),-67.2
